Hit rate of the full screen: of about 310,000 compounds, about 14,000 (4.5%) showed an effect of 50% or more. Effects have a minus sign here. The list shows a part of the results.
Target: human ether-à-go-go-related gene (hERG) potassium channel (human, UniProt Q12809)
Assay: primary screen, population patch clamp on CHO cells stably expressing hERG
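Also: peak tail current of the secondary pulse compared with the same well before compound.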

Chain of human ether-à-go-go-related gene (hERG) potassium channel (Q12809 whole entry, looked up): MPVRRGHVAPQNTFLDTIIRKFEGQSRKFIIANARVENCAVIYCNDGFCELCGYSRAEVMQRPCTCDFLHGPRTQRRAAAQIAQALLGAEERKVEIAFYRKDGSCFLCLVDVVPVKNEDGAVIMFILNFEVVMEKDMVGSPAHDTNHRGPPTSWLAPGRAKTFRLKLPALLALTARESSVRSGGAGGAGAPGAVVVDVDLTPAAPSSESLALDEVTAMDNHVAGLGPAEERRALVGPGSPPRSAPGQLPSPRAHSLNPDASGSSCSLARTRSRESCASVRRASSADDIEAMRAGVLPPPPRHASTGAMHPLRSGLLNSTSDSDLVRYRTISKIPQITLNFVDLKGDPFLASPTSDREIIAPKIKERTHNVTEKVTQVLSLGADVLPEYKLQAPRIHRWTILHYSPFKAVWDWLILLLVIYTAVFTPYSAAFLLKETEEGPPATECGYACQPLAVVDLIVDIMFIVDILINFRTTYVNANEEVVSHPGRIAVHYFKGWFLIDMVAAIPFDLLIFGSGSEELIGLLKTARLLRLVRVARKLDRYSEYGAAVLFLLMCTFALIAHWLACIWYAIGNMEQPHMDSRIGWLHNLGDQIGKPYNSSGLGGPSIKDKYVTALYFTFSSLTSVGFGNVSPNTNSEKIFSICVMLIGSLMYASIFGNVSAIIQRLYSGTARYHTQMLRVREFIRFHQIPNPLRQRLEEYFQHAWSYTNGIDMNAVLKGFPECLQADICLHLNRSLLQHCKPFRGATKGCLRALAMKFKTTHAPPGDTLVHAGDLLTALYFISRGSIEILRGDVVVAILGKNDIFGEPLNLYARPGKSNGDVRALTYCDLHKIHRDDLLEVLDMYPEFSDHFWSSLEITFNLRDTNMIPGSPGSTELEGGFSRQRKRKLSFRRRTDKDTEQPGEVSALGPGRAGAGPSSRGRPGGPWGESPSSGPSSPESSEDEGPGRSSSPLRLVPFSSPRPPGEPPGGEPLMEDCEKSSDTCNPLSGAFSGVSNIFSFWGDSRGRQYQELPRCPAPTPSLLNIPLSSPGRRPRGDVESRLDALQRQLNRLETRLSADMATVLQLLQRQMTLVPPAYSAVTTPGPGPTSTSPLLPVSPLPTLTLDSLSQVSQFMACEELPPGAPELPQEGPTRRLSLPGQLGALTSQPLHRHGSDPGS

Compound | hERG current change (%, negative = inhibition) at 10uM
Nc1ncnc(N(c2ccccc2)C2CCCCC2)c1[N+](=O)[O-] | 14.1%
Cc1c(C)[n+](=O)c2c(n1[O-])C(Br)CCC2Br (stereo not shown) | 5.34%
COc1ccc(S(=O)(=O)N2CCCC(C(=O)Nc3cccc(C(C)=O)c3)C2)cc1 (stereo not shown) | -21.1%
O=c1[nH]c(Nc2ccccc2)cc2cc(Br)ccc12 | 17%
CCc1cccc(NC(=O)CCNS(=O)(=O)c2ccc3c(c2)oc(=O)n3C)c1 | 6.45%
CC1Cc2ccccc2N1C(=O)c1ccc2c(c1)nnn2C (stereo not shown) | -6.1%
Cc1ccc(NC(=S)Nc2ccc(F)cc2)cc1C | 7.56%
N#Cc1nc(/C=C/c2ccccc2)oc1NCCCN1CCOCC1 | -36.2%
Cc1cc(-c2csc(N)n2)c(C)n1-c1ccc(Cl)c(Cl)c1 | 11.8%
Cc1[nH]c2ccccc2c1Cc1nnc(SCc2ccccc2)o1 | 6.41%
CCc1ccc(N2CC(C(=O)OCC(=O)Nc3cc(C)on3)CC2=O)cc1 (stereo not shown) | -18.2%
COc1cccc(OC)c1OCCNCC1CSc2ccccc2O1.Cl (stereo not shown) | -53.6%
COC(=O)CN(c1cc(Cl)ccc1OC)S(=O)(=O)c1ccc(C)cc1 | -0.0949%
COc1ccc(/C=N/NC(=O)COc2ccccc2-c2ccccc2)cc1 | 3.37%
COc1ccc(-c2oc3ccccc3c2C(=O)OCc2ccc([N+](=O)[O-])cc2)cc1 | 8.57%
Cn1c(=O)c2c(nc(NCCCO)n2Cc2cccc(C(F)(F)F)c2)n(C)c1=O | -6.7%
CCN(CC)C(=O)c1ccc2c(c1)C1C(Cl)C(Sc3ccccc3[N+](=O)[O-])CC1C(C(=O)O)N2 (stereo not shown) | -59.3%
CCOC(=O)N1CCN(c2ccc(C(=O)c3cccc(F)c3)cc2)CC1 | -40.2%
O=C(NCc1nnc(SCC(=O)N2CCCC2)o1)c1c(F)cccc1F | 10.8%
COc1ccccc1N(CC(=O)Nc1ccc(F)c(F)c1)S(C)(=O)=O | -1.01%
CCOc1nc(NC(C)C)nc(N2CC3CC(C2)c2cccc(=O)n2C3)n1 (stereo not shown) | 3.34%
Cc1sc2ncn(CC(=O)NCc3ccccc3)c(=O)c2c1C | 5.34%

Compound | hERG current change (%, negative = inhibition) at 10uM
C=CCNC(=O)COC(=O)c1ccc(Sc2nncn2C)c([N+](=O)[O-])c1 | 25%
Cc1ccn2c(C(=O)CSc3ccc(Cl)cc3Cl)c(C)nc2c1 | 20.9%
CSc1sccc1/C=N/NC(=O)c1ccncc1 | -0.626%
O=C(N/N=C/c1cccc(O)c1)C(=O)N1CCCCCC1 | 24.6%
O=C(CCC(=O)Nc1nnc(C2CCCCC2)s1)NCc1cccs1 | -5.27%
CSc1nc(C)nc(N/C=C(\C#N)S(=O)(=O)c2ccccc2Cl)n1 | 2.68%
Cc1cc(-c2nn3c(-c4ccccc4)nnc3s2)c2ccccc2n1 | 9.47%
CCOC(=O)C1(Cc2ccccc2C)CCCN(C(=O)c2cc(CC)nn2C)C1 (stereo not shown) | -8.8%
O=[N+]([O-])c1ccc(NC(=S)NCCc2ccc(F)cc2)cc1 | -11.8%
CN(C(=O)COC(=O)CCC1CCCCC1)c1c(N)n(Cc2ccccc2)c(=O)[nH]c1=O | 16.5%
Cc1cc(C)n(Cc2ccccc2F)c(=O)c1C#N | -1.33%
CCC(C)C(=O)Nc1nc2c(s1)C(=O)CC(C)(C)C2 (stereo not shown) | -12.7%
COC(=O)c1c(C(=O)OC)n(CCCN)c2ccc(C)cc12.Cl | -77%
CCc1nnc(NC(=O)CSc2nc3c([nH]c4ccccc43)c(=O)n2CCOC)s1 | -6.31%
COC(=O)c1ccc(Nc2cc(C)nc3ccc(C)cc23)cc1.Cl | -55.6%
O=C1C=C(Nc2ccccc2O)c2ccccc2C1=O | -5.44%
Cc1cc(C)n(CCCNC(=O)CCNS(=O)(=O)c2ccccc2C(F)(F)F)n1 | 10.6%
C=CCNC(=O)C1CCN(S(=O)(=O)c2ccc(Br)cc2)CC1 | -58.7%
Cc1ccc(NC(=O)CN(C)C(=O)CSc2n[nH]c(N)n2)cc1 | -2.07%
COc1ccc(OCc2cc(C(=O)O)c(C)o2)cc1 | 2.69%
CCOC(=O)Cn1c(=NC(=O)CC)sc2c(C)cc(C)cc21 | 13.9%
Cc1ccc(S(=O)(=O)NNC(=O)Nc2cccc(C)c2C)c(C)c1 | 4.56%

Compound | hERG current change (%, negative = inhibition) at 10uM
Cc1cc(F)ccc1NS(=O)(=O)c1c(C)nc2scc(C)n2c1=O | -35.8%
C[C@@]12C(=O)N(Cc3ccccc3)CC(=O)N1[C@H]1c3ccccc3OC[C@@H]1[C@@H]2c1ccccc1 | 3.84%
CCN(CC)S(=O)(=O)c1ccc(N2CCCCC2)c(NC(=O)/C=C/c2cc(OC)c(OC)c(OC)c2)c1 | 7.15%
Cc1cccc2cc(C3CC(c4ccco4)=NN3S(C)(=O)=O)c(Cl)nc12 (stereo not shown) | -29.9%
CCOc1cc(C2c3c(-c4ccccc4)n[nH]c3C(=O)N2c2ccc(C(=O)O)cc2)ccc1O (stereo not shown) | 6.07%
Cc1ccnc(NC(=O)CCC(=O)N(CC(=O)NC2CCCCC2)Cc2ccccc2)c1 | -8.18%
CCCN1CCN(C(=O)Nc2cccc(C(F)(F)F)c2)CC1 | -36%
Cc1cc(C)nc(SCC(=O)c2ccc(O)cc2O)n1 | -1.33%
CCC1Oc2ccc(C)cc2N(CC(=O)N(Cc2ccc(C)o2)C2CC(C)(C)NC(C)(C)C2)C1=O (stereo not shown) | -26.9%
COc1ccc(C[C@H]2CN3C(=NC[C@H]3Cc3ccccc3)N2CCNC(=O)c2ccc(C)c(Br)c2)cc1 | -69%
COc1ccc(C(=O)O/N=C(\N)c2ccc(OC)c(OC)c2)cc1 | -18.6%
Cn1c(SCC(=O)Nc2cccc(F)c2)nc2c(c1=O)SCC2 | 9.04%
CN(C)S(=O)(=O)c1cccc(C(=O)Nc2ccc(S(=O)(=O)N3CCCC3)cc2)c1 | 25.5%
Cc1csc(=O)n1CC(=O)OC(C)C(=O)Nc1ccc(F)c(F)c1F (stereo not shown) | -4.29%
CC(CCc1ccccc1)NC(=O)c1ccc(Br)o1 (stereo not shown) | -18.8%
c1cnc(N2CCSCC2)nc1 | 0.773%
Cn1nnnc1SCC(=O)Nc1ccccc1Br | 12.3%
COc1ccc(-c2nc(SCc3ccc(C#N)cc3)[nH]c(=O)c2C#N)cc1 | 11.3%
COc1ccc(NC(=O)c2cc(-c3ccc(C)c(C)c3O)n[nH]2)cc1Cl | 34.9%
COc1cc(OC)cc(C(=O)N[C@H](C(=O)NCc2cccs2)C(C)C)c1 | -5.96%
OCCN(CCO)CC(O)COc1ccc(Br)cc1 (stereo not shown) | 3.82%
OCC1CO1 (stereo not shown) | 15.8%

Compound | hERG current change (%, negative = inhibition) at 10uM
CCn1c(=O)cc(SCC(=O)Nc2cc(OC)c(OC)c(OC)c2)c2ccccc21 | -39.8%
O=C(NCCc1c[nH]c2ccccc12)C1CCN(c2nnc(N3CCCC3=O)s2)CC1 | 8.42%
CC(=O)Nc1ccc(S(=O)(=O)NCc2csc(C)n2)cc1 | 6.2%
O=C(CCC(=O)c1cccs1)OCC(=O)N1CCN(S(=O)(=O)c2ccccc2)CC1 | -24.1%
CC(C)CCN(CC(=O)NCc1ccc(F)cc1)S(=O)(=O)c1ccccc1F | -5.71%
CCOc1ccc(N2C(=O)CC(NCCc3ccc(S(N)(=O)=O)cc3)C2=O)cc1 (stereo not shown) | -22%
CCn1c(C)nc2cc(C#N)ccc21 | 7.06%
Cc1[nH]n(C(N)=S)c(=O)c1N=Nc1cccc(Cl)c1 | 15.9%
COc1ccc(C2Nc3ccccc3NC3=C2C(=O)CC(C)(C)C3)cc1OC (stereo not shown) | 13%
O=C(O)c1ccc(N(c2ccccc2)c2ccccc2)cc1 | 2.69%
O=C(Cc1cccs1)Nc1nc2ccccc2s1 | 3.57%
CC(NC(=O)Cn1cnc2c1c(=O)n(C)c(=O)n2C)c1ccccc1 (stereo not shown) | -0.782%
O=C(COC(=O)c1cccnc1Nc1cccc(C(F)(F)F)c1)NC1CCS(=O)(=O)C1 (stereo not shown) | -16.1%
NC(=O)C1(c2ccccc2)CCC(=O)N1c1ccccc1 (stereo not shown) | 11.3%
COc1ccc(NC(=O)c2scc(S(=O)(=O)C(C)C)c2N)cc1 | 8.21%
CCCCn1c(N)c(N(CC)C(=O)c2ccc(N(C)S(=O)(=O)c3ccc(C)cc3)cc2)c(=O)[nH]c1=O | -2.35%
CN(C)c1ccc(/C=C/c2cccc[n+]2[O-])cc1 | 19.7%
Cc1ccc(NC(=O)c2ccc(OCC3CCCO3)cc2)cc1 (stereo not shown) | -2.87%
C#CCOCCOCCOCCNc1nc(N2CCN(C(=O)Cn3cc(CCCC[NH3+])nn3)CC2)nc(N2CCN(C(=O)[C@H]([C@@H](C)CC)n3cc(CCCC[NH3+])nn3)CC2)n1.[Cl-] | 6.58%
Cc1occc1-c1nnc(SCC(=O)c2ccc(Cl)cc2)n1C | -20.3%
CCn1c(C)nnc1SCC(=O)Nc1ccccc1OC | 21.3%
Cc1ccc(-n2c(SCC(=O)Nc3cccc(S(=O)(=O)NC4=NCCCCC4)c3)nc3ccccc3c2=O)cc1 | -11.1%
